This is an account of results in PMC5836133.

This is one part of the list. At the low end of the ranking, values are background and their order means little.

This assay has as its system T1, GST-NbGlk1(82-244).
T1 sequence: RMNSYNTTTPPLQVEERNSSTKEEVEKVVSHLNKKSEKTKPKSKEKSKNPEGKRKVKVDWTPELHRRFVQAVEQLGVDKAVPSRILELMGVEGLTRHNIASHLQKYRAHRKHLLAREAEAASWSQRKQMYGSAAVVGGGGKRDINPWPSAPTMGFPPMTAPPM
Kind of assay: protein-binding microarray.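 Further: rank-based score ranging −0.5 to +0.5 with E above 0.45 taken as significant binding.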 To be noted: NbGlk1 is a Golden2-like transcription factor of Nicotiana benthamiana; high values mean tight binding; most listed sequences are background and not binding sites; double strand, one strand shown.
As to ATCTTGAG, the binding signal is 0.247 E-score.

As to ATCGAACA, the binding signal came to 0.111 E-score.

For AGACTAGA, the binding signal worked out at 0.128 E-score.

Regarding AACTCCAT, the binding signal was -0.0877 E-score.

As to ATCTTTAG, the binding signal was 0.26 E-score.

ATACAAAC yielded a binding signal of 0.0933 E-score.

ATAAATAG showed a binding signal of 0.0539 E-score.

ACCTGGAT displayed a binding signal of 0.224 E-score.

The sequence CAATGAGA registered a binding signal of 0.0544 E-score.

Turning to AATAGCAG, the binding signal was -0.0661 E-score.

AGACGATC had a binding signal of 0.259 E-score.

For AAAGTAAG, the binding signal came out at 0.0408 E-score.

Sequence AAGGACAG returned a binding signal of -0.0866 E-score.

In the case of ATAGTCCG, the binding signal is -0.17 E-score.

In turn, AGCATCCT displayed a binding signal of -0.0903 E-score.

ATCCTCCA gave a binding signal of 0.285 E-score.

CAAATAAA had a binding signal of 0.161 E-score.

AGGCGTAA: the binding signal was -0.039 E-score.

Turning to ATCAGCGG, the binding signal is 0.0385 E-score.

In turn, AAAGGCCT showed a binding signal of -0.286 E-score.

ATAACTCG displayed a binding signal of 0.0874 E-score.

Consider CAAGGCGG, for which the binding signal is -0.214 E-score.

As for AACAGACG, the binding signal was -0.0158 E-score.

As for ACATGCGA, the binding signal is 0.0558 E-score.

AACGTCGA had a binding signal of 0.0788 E-score.

The sequence CAAGCAGG showed a binding signal of -0.0729 E-score.

In turn, ACGATCTA displayed a binding signal of 0.252 E-score.

As to AACCGACA, the binding signal is 0.116 E-score.

ACCCCCAT had a binding signal of -0.143 E-score.

Sequence ACCACTAC had a binding signal of -0.147 E-score.

Regarding ATGTAAAG, the binding signal worked out at 0.143 E-score.

On to CAACTTCC, for which the binding signal was -0.0611 E-score.

Take AAAATTAG: the binding signal is 0.00982 E-score.

The sequence CACTTGAC yielded a binding signal of -0.0785 E-score.

With AACTTTGC, the binding signal was -0.0119 E-score.

In the case of AAAAGATG, the binding signal is -0.0604 E-score.

In the case of ATGTGATA, the binding signal was 0.231 E-score.

Sequence ACGTCCAC showed a binding signal of -0.17 E-score.

Take ACATTGTG: the binding signal was -0.119 E-score.

The sequence ATTGTCAG showed a binding signal of 0.138 E-score.

With AGTGTGTG, the binding signal is -0.163 E-score.

For AATATCCC, the binding signal amounted to 0.339 E-score.

The sequence AAATTGTA yielded a binding signal of 0.146 E-score.

In turn, ACTGCCAC gave a binding signal of -0.0942 E-score.

With AACATCTC, the binding signal is -0.0203 E-score.

Sequence ACATAAAT yielded a binding signal of 0.181 E-score.

As to ACCTGCCG, the binding signal was -0.247 E-score.

As for ATATTTGA, the binding signal amounted to 0.263 E-score.

Take AGTCTCTC: the binding signal was -0.216 E-score.

Sequence ATCACACC came in with a binding signal of 0.139 E-score.

As for AGTCAGAC, the binding signal is -0.127 E-score.

In turn, AGACACCG showed a binding signal of -0.106 E-score.

Regarding AGCAAATC, the binding signal is 0.419 E-score.

ACCCCGAA registered a binding signal of -0.0811 E-score.

In turn, ATCTATGC had a binding signal of 0.16 E-score.

For the sequence ACCTTGAT, the binding signal was 0.152 E-score.

AGTGTAGG showed a binding signal of -0.157 E-score.

AGCGATGA: the binding signal is -0.0522 E-score.

Regarding AACGCGGT, the binding signal is -0.18 E-score.

AGGATCGA had a binding signal of -0.0476 E-score.

ATAAGCAT: the binding signal came to 0.11 E-score.

In turn, ATTGTGCG displayed a binding signal of 0.2 E-score.

For the sequence AGTGATCG, the binding signal was 0.105 E-score.

For AACAGGCT, the binding signal was -0.246 E-score.

AGAGTATG: the binding signal was -0.0636 E-score.

ACGGCTAC: the binding signal is -0.205 E-score.

ACAGAAGC showed a binding signal of -0.0949 E-score.

The sequence ACCGTGGA came in with a binding signal of -0.142 E-score.

CAACCGGA had a binding signal of -0.0104 E-score.

As for AGACGAGG, the binding signal is -0.223 E-score.

Sequence ACCCGCAT came in with a binding signal of -0.105 E-score.

ACCTGCCA had a binding signal of -0.249 E-score.

In the case of ACCAAACT, the binding signal came out at 0.00348 E-score.

AAAACAGA had a binding signal of 0.118 E-score.

In the case of AAGGGGCA, the binding signal is -0.287 E-score.

Sequence AGGGTGCG had a binding signal of -0.0452 E-score.

For the sequence AAGTCTGC, the binding signal was -0.215 E-score.

Turning to ATTGCAGG, the binding signal was found to be 0.103 E-score.

Regarding ACTCAGCT, the binding signal was -0.0285 E-score.

As for ATAACGAG, the binding signal turned out to be 0.0886 E-score.

As to ACGATAGA, the binding signal came to 0.0113 E-score.

The sequence ATGGCCAA gave a binding signal of -0.131 E-score.

Sequence ATGTCGCC yielded a binding signal of -0.0477 E-score.

On to AATATTAC, for which the binding signal worked out at 0.235 E-score.

As to ATGCGCCA, the binding signal is -0.0542 E-score.

Consider CAAACTGA, for which the binding signal is -0.0751 E-score.

Take AATCCTTA: the binding signal stood at 0.337 E-score.

Turning to ACCTGAGC, the binding signal was -0.13 E-score.

AAACGTAT yielded a binding signal of 0.171 E-score.

AAGAGGCG had a binding signal of -0.244 E-score.

On to ACCATCAC, for which the binding signal was -0.102 E-score.

Sequence AAAAGCAT returned a binding signal of -0.1 E-score.

ACTTGGTA had a binding signal of -0.0769 E-score.

For ATGAGGTA, the binding signal is 0.0375 E-score.

As for AAAACCGA, the binding signal stood at 0.0406 E-score.

For the sequence AGCATGGA, the binding signal was 0.0209 E-score.

Sequence AGAGCCTC showed a binding signal of -0.15 E-score.

As for AAACATGG, the binding signal is 0.003 E-score.

CAACCATA yielded a binding signal of -0.0717 E-score.

ATGTTAAT came in with a binding signal of 0.187 E-score.

In turn, ATCAACAC registered a binding signal of 0.106 E-score.

Sequence ATTGTTAC yielded a binding signal of 0.0849 E-score.

In turn, ACGCGGCT returned a binding signal of -0.224 E-score.

AAATCCCA had a binding signal of 0.4 E-score.

In turn, ACCCATTG displayed a binding signal of -0.1 E-score.

Regarding AATTAAAG, the binding signal was 0.0712 E-score.

ATCGGTCA registered a binding signal of -0.0347 E-score.

AATCTAGC had a binding signal of 0.404 E-score.

Sequence ACATCGTG registered a binding signal of -0.146 E-score.

As to ACCGAAGA, the binding signal was 0.0235 E-score.
